{"source": "patent US11452781B2", "about": "“Method of preventing and treating type 1 diabetes, allograft rejection and lung fibrosis (by targeting the ATP/P2X7R axis)” (CHILDREN'S MEDICAL CENTER CORPORATION, priority 2013, dated 2022)", "test_system": "P2X7R2/2 C57BL6 mice transplanted with BALB/c islets", "test": "Allogeneic islet transplantation into P2X7R-/- C57BL6 recipients", "conditions": "oATP-treated P2X7R2/2 recipients, n=5"}
{"substance": "periodate-oxidized ATP [oATP]", "values": [{"measurement": "islet graft MST", "value": 26, "unit": "days"}]}
